Data taken from article PMC4336329 (PLoS ONE, 2015).
In all, about 310,000 compounds went through this assay and about 14,000 (4.5%) showed an effect of 50% or more. The effect is printed as a negative number. The list shows a part of the results.

The molecules below were run against human ether-à-go-go-related gene (hERG) potassium channel (human, UniProt Q12809) (assay: primary screen, population patch clamp on CHO cells stably expressing hERG).
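Note: peak tail current of the secondary pulse compared with the same well before compound.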

Chain of human ether-à-go-go-related gene (hERG) potassium channel (Q12809 whole entry, looked up): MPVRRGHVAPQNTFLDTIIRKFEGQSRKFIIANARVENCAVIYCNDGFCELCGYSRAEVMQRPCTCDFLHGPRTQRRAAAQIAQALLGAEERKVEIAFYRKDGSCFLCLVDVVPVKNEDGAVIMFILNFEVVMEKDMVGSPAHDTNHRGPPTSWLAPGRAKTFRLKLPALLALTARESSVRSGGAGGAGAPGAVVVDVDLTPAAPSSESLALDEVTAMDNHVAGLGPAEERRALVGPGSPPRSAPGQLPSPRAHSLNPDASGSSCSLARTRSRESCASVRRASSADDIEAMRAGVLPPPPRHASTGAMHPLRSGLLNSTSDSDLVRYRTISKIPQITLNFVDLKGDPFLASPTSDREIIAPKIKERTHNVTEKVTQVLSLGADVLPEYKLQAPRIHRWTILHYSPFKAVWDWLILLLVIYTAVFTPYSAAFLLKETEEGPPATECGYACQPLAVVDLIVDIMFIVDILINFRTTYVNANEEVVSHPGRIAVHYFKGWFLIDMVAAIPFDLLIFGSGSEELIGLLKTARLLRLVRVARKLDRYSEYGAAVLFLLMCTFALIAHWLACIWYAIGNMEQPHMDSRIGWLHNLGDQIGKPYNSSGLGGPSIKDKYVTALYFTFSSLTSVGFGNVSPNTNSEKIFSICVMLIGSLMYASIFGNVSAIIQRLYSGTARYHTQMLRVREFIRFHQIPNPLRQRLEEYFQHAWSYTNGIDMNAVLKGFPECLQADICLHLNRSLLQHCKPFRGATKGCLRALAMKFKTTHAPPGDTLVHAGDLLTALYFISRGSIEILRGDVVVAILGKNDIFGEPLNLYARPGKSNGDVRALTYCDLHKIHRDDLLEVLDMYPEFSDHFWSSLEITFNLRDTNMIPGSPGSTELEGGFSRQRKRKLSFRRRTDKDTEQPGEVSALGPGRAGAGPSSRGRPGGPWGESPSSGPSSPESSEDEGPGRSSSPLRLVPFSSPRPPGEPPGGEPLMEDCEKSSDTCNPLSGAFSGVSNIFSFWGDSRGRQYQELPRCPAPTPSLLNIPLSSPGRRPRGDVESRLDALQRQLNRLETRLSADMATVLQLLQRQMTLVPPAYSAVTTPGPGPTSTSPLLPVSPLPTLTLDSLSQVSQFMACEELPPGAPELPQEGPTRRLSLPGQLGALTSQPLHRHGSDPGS

SMILES	hERG current change (%, negative = inhibition) at 10uM [%]
O=C(CSc1nc(-c2ccccc2)cc(=O)[nH]1)NCc1ccc2c(c1)OCO2	4.58
COc1ccc(OC)c(-n2c(SCC(=O)Nc3cc(C)on3)nnc2-c2c[nH]c3ccccc23)c1	-19.6
COc1cc2nc(CN3CCN(S(=O)(=O)c4ccc(Cl)cc4)CC3)[nH]c(=O)c2cc1OC	-58.2
O=C(COC(=O)CNC(=O)c1ccccc1Cl)Nc1ccccc1Cl	17.1
COc1cccc2cc(C(=O)CS(=O)(=O)c3ccc(C(C)(C)C)cc3)c(=O)oc12	17.1
CN(CC(=O)O/N=C(\N)c1ccccn1)S(=O)(=O)c1ccccc1	-4.98
COc1ccc(S(=O)(=O)N2CCN(C(=O)NC3CCCCC3)CC2)cc1OC	-17.7
CCCn1c2ccccc2c2nnc(SCCN3CCOCC3)nc21	-9.15
O=C(CCCc1ccccc1)Nc1ccccn1	5.69
COc1ccc(NC(=O)CSc2nnc(CNc3ccc(C)cc3)n2C)cc1	25.2
COc1ccc(Cl)cc1NC(=S)NCCCN1CCCC1=O	2.39
COc1cc2c(cc1OC)C(NC(=O)c1ccc(C)cc1)CC2=O (centres unmarked)	-2.85
O=C(Nc1ccc2c(c1)OCCO2)c1ccc(Cl)cc1	6.17
CNC(=S)N(Cc1ccco1)Cc1cc2cc(OC)ccc2[nH]c1=O	8.27
Cc1c(C(=O)NCC2CCCO2)oc2ccccc12 (centres unmarked)	-1.51
CCc1cccc(C)c1NC(=O)COC(=O)Cc1ccsc1	10.4
COc1ccc(C(C(=O)Nc2ccc(C(C)C)cc2)N(C)C(=O)CNC(C)=O)cc1 (centres unmarked)	-36.7
Fc1ccc(C(CNC(=S)NC2CCCCC2)N2CCOCC2)cc1 (centres unmarked)	20.9
Cc1ccc(C)c(OCc2ccc(C(=O)N3N=C(C(F)F)CC3(O)C(F)F)o2)c1 (centres unmarked)	7.75
O=C1C2C3C=CC(C3)C2C(=O)N1CCCCN1C(=O)C2C3C=CC(C3)C2C1=O (centres unmarked)	15.1
C=CCN(C(=O)Cn1ncc2c1-c1cc(C)ccc1OC2)c1ccccc1	-24.9
Cc1cc(=O)c(C(=O)O)nn1-c1ccccc1Cl	21.4

SMILES	hERG current change (%, negative = inhibition) at 10uM [%]
CC(=O)NC1C(Oc2cccc(C)c2)OC2COC(c3ccco3)OC2C1O (centres unmarked)	-2.31
COC(=O)CSc1nnc(NC(=O)CCc2ccccc2)s1	19.4
CCOC(=O)C1=C(N)OC(C)=C(C(=O)OCCOC)C12C(=O)Nc1ccccc12 (centres unmarked)	9.07
CC(=O)Nc1ccc(NC(=O)C(=O)N/N=C/c2cccnc2)cc1	15
CCCn1nc(C(=O)NNC(=O)CSCC(=O)Nc2cc(C)on2)c2ccccc2c1=O	4.74
Cn1c(=O)oc2cc(S(=O)(=O)NCc3ccccn3)ccc21	8.11
COc1ccc(/C=N\NC(=O)c2ccccc2F)cc1COc1ccc(F)cc1F	11.7
CCN1CCN(C(=O)c2ccc(COc3cccc(Cl)c3)o2)CC1	-23.7
O=C(NCc1ccc(Cl)cc1)C(=O)NCC1OCCN1C(=O)c1cccs1 (centres unmarked)	-7.77
Cc1ccc(-n2ccc(-c3nn(-c4ccccc4)ccc3=O)n2)cc1	-11.4
O=C(Cn1cccc1C(=O)c1ccccc1)NCCCN1CCOCC1	13.4
COc1ccc2ncc(S(=O)(=O)c3ccccc3)c(N3CCN(c4ccccc4)CC3)c2c1	-8.4
Cc1ccc(S(=O)(=O)N(CC(O)CN2CCOCC2)c2cc(Cl)ccc2Cl)cc1.Cl (centres unmarked)	-31.9
COP(=O)(NC(=O)C(Cl)(Cl)Cl)OC	7.96
Cc1ccc(C)n1-n1cnc2sc3c(c2c1=O)CCCCC3	-19.6
COc1ccc(C(=O)Nc2ccccc2C(=O)N/N=C/c2ccccn2)cc1OC	9.73
COc1cc(Cl)cc(/C=N/NC(N)=O)c1O	11.3
CC(C)CNC(=S)Nc1ccc(Oc2ccccc2)cc1	-5.91
CN1C(=O)c2c(sc3c2CC(C)(C)SC3)N2CCN=C12.Cl	-72.6
O=C(NC1CCCC1)C(c1ccc(F)cc1)N(Cc1ccccc1)C(=O)c1csnn1 (centres unmarked)	-11.9
CC(=O)OCC[n+]1c(C)n(-c2ccccc2)c2ccc(Cl)cc21.[I-]	-4.75
CC(=O)c1cccc(S(=O)(=O)N2CCC(C(=O)OC3CCOC3=O)CC2)c1 (centres unmarked)	-7.44
